In the supplement of paper PMC8728848:
The list shows a part of the results.

What was measured:
Test in all cases: glycan array binding signal (z-score within array); higher = stronger binding
Settings in all cases: glycan notation: IUPAC condensed, linker removed
[1] = molecular target: Fuc(a1-2)[GalNAc(a1-3)]Gal(b1-3)GlcNAc(b1-6)GalNAc
Method in brief: (§1)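 Glycan array data were curated from 3228 arrays in the Consortium for Functional Glycomics database and kept only where the protein sequence was available. Glycan names were converted to IUPAC-condensed notation, and columns mapping to the same glycan were averaged. The binding signal is a within-array Z-score, averaged across arrays of the same protein sequence at different concentrations or buffers and across linkers. Negative Z-scores can be read as non-binding.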

[2] = molecular target: Fuc(a1-2)[GalNAc(a1-3)]Gal(b1-4)Glc
Method in brief: as §1

[3] = molecular target: Fuc(a1-2)[GalNAc(a1-3)]Gal(b1-4)GlcNAc
Method in brief: as §1

[4] = molecular target: Fuc(a1-2)[GalNAc(a1-3)]Gal(b1-4)GlcNAc(b1-2)Man
Method in brief: as §1

[5] = molecular target: Fuc(a1-2)[GalNAc(a1-3)]Gal(b1-4)GlcNAc(b1-2)Man(a1-3)[Fuc(a1-2)[GalNAc(a1-3)]Gal(b1-4)GlcNAc(b1-2)Man(a1-6)]Man(b1-4)GlcNAc(b1-4)GlcNAc
Method in brief: as §1

[6] = molecular target: Fuc(a1-2)[GalNAc(a1-3)]Gal(b1-4)GlcNAc(b1-2)Man(a1-3)[Fuc(a1-2)[GalNAc(a1-3)]Gal(b1-4)GlcNAc(b1-2)Man(a1-6)]Man(b1-4)GlcNAc(b1-4)[Fuc(a1-6)]GlcNAc
Method in brief: as §1

[7] = molecular target: Fuc(a1-2)[GalNAc(a1-3)]Gal(b1-4)GlcNAc(b1-3)Gal(b1-4)GlcNAc
Method in brief: as §1

[8] = molecular target: Fuc(a1-2)[GalNAc(a1-3)]Gal(b1-4)GlcNAc(b1-3)Gal(b1-4)GlcNAc(b1-3)Gal(b1-4)GlcNAc
Method in brief: as §1

[9] = molecular target: Fuc(a1-2)[GalNAc(a1-3)]Gal(b1-4)GlcNAc(b1-3)GalNAc
Method in brief: as §1

[10] = molecular target: Fuc(a1-2)[GalNAc(a1-3)]Gal(b1-4)GlcNAc(b1-3)[Fuc(a1-2)[GalNAc(a1-3)]Gal(b1-4)GlcNAc(b1-6)]GalNAc
Method in brief: as §1

[11] = molecular target: Fuc(a1-2)[GalNAc(a1-3)]Gal(b1-4)GlcNAc(b1-6)GalNAc
Method in brief: as §1

[12] = molecular target: Fuc(a1-2)[GalNAc(a1-3)]Gal(b1-4)[Fuc(a1-3)]GlcNAc
Method in brief: as §1

[13] = molecular target: Fuc(a1-2)[GalNAc(a1-3)]Gal(b1-4)[Fuc(a1-3)]GlcNAc(b1-3)GalNAc
Method in brief: as §1

[14] = molecular target: Fuc(a1-2)[GalNAc(a1-4)]Gal(b1-4)GlcNAc
Method in brief: as §1

[15] = molecular target: Fuc(a1-2)[GalNAc(b1-3)]Gal
Method in brief: as §1

Fuc(a1-3)GlcNAc = molecular target: Fuc(a1-3)GlcNAc
Method in brief: as §1

[16] = molecular target: Fuc(a1-3)[Gal(b1-4)]Glc6S
Method in brief: as §1

[17] = molecular target: Fuc(a1-3)[Gal(b1-4)]GlcNAc
Method in brief: as §1

[18] = molecular target: Fuc(a1-3)[Gal(b1-4)]GlcNAc(b1-2)Man
Method in brief: as §1

[19] = molecular target: Fuc(a1-3)[Gal(b1-4)]GlcNAc(b1-2)Man(a1-3)[Fuc(a1-3)[Gal(b1-4)]GlcNAc(b1-2)Man(a1-6)]Man(b1-4)GlcNAc(b1-4)GlcNAc
Method in brief: as §1

[20] = molecular target: Fuc(a1-3)[Gal(b1-4)]GlcNAc(b1-2)Man(a1-3)[Fuc(a1-3)[Gal(b1-4)]GlcNAc(b1-2)Man(a1-6)]Man(b1-4)GlcNAc(b1-4)[Fuc(a1-6)]GlcNAc
Method in brief: as §1

[21] = molecular target: Fuc(a1-3)[Gal(b1-4)]GlcNAc(b1-3)Gal(b1-3)[Fuc(a1-4)]GlcNAc
Method in brief: as §1

[22] = molecular target: Fuc(a1-3)[Gal(b1-4)]GlcNAc(b1-3)Gal(b1-4)[Fuc(a1-3)]GlcNAc
Method in brief: as §1

[23] = molecular target: Fuc(a1-3)[Gal(b1-4)]GlcNAc(b1-3)Gal(b1-4)[Fuc(a1-3)]GlcNAc(b1-3)Gal(b1-4)[Fuc(a1-3)]GlcNAc
Method in brief: as §1

[24] = molecular target: Fuc(a1-3)[Gal(b1-4)]GlcNAc(b1-3)GalNAc
Method in brief: as §1

[25] = molecular target: Fuc(a1-3)[Gal(b1-4)]GlcNAc(b1-6)GalNAc
Method in brief: as §1

[26] = molecular target: Fuc(a1-3)[Gal(b1-4)]GlcNAc(b1-6)[Gal(b1-3)GlcNAc(b1-3)]Gal(b1-4)Glc
Method in brief: as §1

[27] = molecular target: Fuc(a1-3)[Gal(b1-4)]GlcNAc6S
Method in brief: as §1

[28] = molecular target: Fuc(a1-3)[Gal3S(b1-4)]Glc
Method in brief: as §1

[29] = molecular target: Fuc(a1-3)[Gal3S(b1-4)]GlcNAc
Method in brief: as §1

[30] = molecular target: Fuc(a1-3)[Gal3S(b1-4)]GlcNAc6S
Method in brief: as §1

[31] = molecular target: Fuc(a1-3)[GalNAc(b1-4)]GlcNAc
Method in brief: as §1

[32] = molecular target: Fuc(a1-3)[GalNAc(b1-4)]GlcNAc6S
Method in brief: as §1

Fuc(a1-4)GlcNAc = molecular target: Fuc(a1-4)GlcNAc
Method in brief: as §1

Fuc(b1-3)GlcNAc = molecular target: Fuc(b1-3)GlcNAc
Method in brief: as §1

Gal(a1-2)Gal = molecular target: Gal(a1-2)Gal
Method in brief: as §1

Gal(a1-3)Gal = molecular target: Gal(a1-3)Gal
Method in brief: as §1

Gal(a1-3)Gal(b1-3)GlcNAc = molecular target: Gal(a1-3)Gal(b1-3)GlcNAc
Method in brief: as §1

[33] = molecular target: Gal(a1-3)Gal(b1-3)GlcNAc(b1-2)Man
Method in brief: as §1

[34] = molecular target: Gal(a1-3)Gal(b1-3)GlcNAc(b1-2)Man(a1-3)[Gal(a1-3)Gal(b1-3)GlcNAc(b1-2)Man(a1-6)]Man(b1-4)GlcNAc(b1-4)GlcNAc
Method in brief: as §1

[35] = molecular target: Gal(a1-3)Gal(b1-3)GlcNAc(b1-3)GalNAc
Method in brief: as §1

[36] = molecular target: Gal(a1-3)Gal(b1-3)GlcNAc(b1-6)GalNAc
Method in brief: as §1

[37] = molecular target: Gal(a1-3)Gal(b1-3)[Fuc(a1-4)]GlcNAc(b1-2)Man(a1-3)[Gal(a1-3)Gal(b1-3)[Fuc(a1-4)]GlcNAc(b1-2)Man(a1-6)]Man(b1-4)GlcNAc(b1-4)GlcNAc
Method in brief: as §1

Gal(a1-3)Gal(b1-4)Glc = molecular target: Gal(a1-3)Gal(b1-4)Glc
Method in brief: as §1

Gal(a1-3)Gal(b1-4)GlcNAc = molecular target: Gal(a1-3)Gal(b1-4)GlcNAc
Method in brief: as §1

B1: MPA (Maclura pomifera), P18674 (protein)
chain: GVTFDDGAYTGIREINFEYNSETAIGGLRVTYDLNGMPFVAEDHKSFITGFKPVKISLEFPSEYIVEVSGYVGKVEGYTVIRSLTFKTNKQTYGPYGVTNGTPFSLPIENGLIVGFKGSIGYWLDYFSIYLSL
glycan array binding signal (z-score) [1]: -0.237
glycan array binding signal (z-score) [2]: -0.194
glycan array binding signal (z-score) [3]: -0.227
glycan array binding signal (z-score) [4]: -0.251
glycan array binding signal (z-score) [5]: -0.264
glycan array binding signal (z-score) [6]: -0.195
glycan array binding signal (z-score) [7]: -0.188
glycan array binding signal (z-score) [8]: 0.144
glycan array binding signal (z-score) [9]: -0.162
glycan array binding signal (z-score) [10]: -0.289
glycan array binding signal (z-score) [11]: -0.18
glycan array binding signal (z-score) [12]: -0.04
glycan array binding signal (z-score) [13]: 0.127
glycan array binding signal (z-score) [14]: -0.268
glycan array binding signal (z-score) [15]: -0.127
glycan array binding signal (z-score) (Fuc(a1-3)GlcNAc): -0.164
glycan array binding signal (z-score) [16]: -0.007
glycan array binding signal (z-score) [17]: -0.191
glycan array binding signal (z-score) [18]: -0.18
glycan array binding signal (z-score) [19]: 0.601
glycan array binding signal (z-score) [20]: 0.036
glycan array binding signal (z-score) [21]: -0.114
glycan array binding signal (z-score) [22]: -0.148
glycan array binding signal (z-score) [23]: -0.235
glycan array binding signal (z-score) [24]: -0.069
glycan array binding signal (z-score) [25]: 0.168
glycan array binding signal (z-score) [26]: -0.141
glycan array binding signal (z-score) [27]: 0.042
glycan array binding signal (z-score) [28]: -0.073
glycan array binding signal (z-score) [29]: -0.253
glycan array binding signal (z-score) [30]: -0.222
glycan array binding signal (z-score) [31]: -0.147
glycan array binding signal (z-score) [32]: -0.262
glycan array binding signal (z-score) (Fuc(a1-4)GlcNAc): -0.174
glycan array binding signal (z-score) (Fuc(b1-3)GlcNAc): -0.103
glycan array binding signal (z-score) (Gal(a1-2)Gal): -0.182
glycan array binding signal (z-score) (Gal(a1-3)Gal): -0.404
glycan array binding signal (z-score) (Gal(a1-3)Gal(b1-3)GlcNAc): -0.109
glycan array binding signal (z-score) [33]: -0.279
glycan array binding signal (z-score) [34]: 0.649
glycan array binding signal (z-score) [35]: -0.257
glycan array binding signal (z-score) [36]: -0.081
glycan array binding signal (z-score) [37]: 0.012
glycan array binding signal (z-score) (Gal(a1-3)Gal(b1-4)Glc): -0.271
glycan array binding signal (z-score) (Gal(a1-3)Gal(b1-4)GlcNAc): -0.249
